Reference: PubChem BioAssay AID1645882 (National Center for Advancing Translational Sciences (NCATS), 2021)
About 120 (0.75%) of roughly 16,000 compounds were called active. Another 4% or so got no clear call; they are omitted. The call rests on the fitted dose curve; in most records, active means well fitted inhibition curve with a large enough effect; inconclusive means small, poorly fitted or top-dose-only effect; inactive means no such curve, though single readings can be large or run the other way. Some of the results follow.

molecular target: Rap guanine nucleotide exchange factor 3 (Homo sapiens) (UniProt O95398); assay: Validation qHTS for antagonist of cAMP-regulated guanine nucleotide exchange factor 3 (EPAC1); conditions: EPAC1 Rap1B-BODIPY-GDP exchange, fluorescence; series mostly up to 150 µM; activity change, negative = inhibition: at the top concentration;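 further: plate controls were DMSO for no effect and ATA control for full effect; nearly all actives have a fitted effect of over 75% in size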
Outline: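 EPAC1 (100 nM) mixed with 250 nM RAP1B-BODIPY-GDP and 50 uM GDP; compounds in concentration series, 5 min at room temperature. Fluorescence (ex 480/em 540 nm) read every 5 min for 30 min; normalized to ATA control and DMSO.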

UniProt O95398, sequence (O95398 whole entry, looked up): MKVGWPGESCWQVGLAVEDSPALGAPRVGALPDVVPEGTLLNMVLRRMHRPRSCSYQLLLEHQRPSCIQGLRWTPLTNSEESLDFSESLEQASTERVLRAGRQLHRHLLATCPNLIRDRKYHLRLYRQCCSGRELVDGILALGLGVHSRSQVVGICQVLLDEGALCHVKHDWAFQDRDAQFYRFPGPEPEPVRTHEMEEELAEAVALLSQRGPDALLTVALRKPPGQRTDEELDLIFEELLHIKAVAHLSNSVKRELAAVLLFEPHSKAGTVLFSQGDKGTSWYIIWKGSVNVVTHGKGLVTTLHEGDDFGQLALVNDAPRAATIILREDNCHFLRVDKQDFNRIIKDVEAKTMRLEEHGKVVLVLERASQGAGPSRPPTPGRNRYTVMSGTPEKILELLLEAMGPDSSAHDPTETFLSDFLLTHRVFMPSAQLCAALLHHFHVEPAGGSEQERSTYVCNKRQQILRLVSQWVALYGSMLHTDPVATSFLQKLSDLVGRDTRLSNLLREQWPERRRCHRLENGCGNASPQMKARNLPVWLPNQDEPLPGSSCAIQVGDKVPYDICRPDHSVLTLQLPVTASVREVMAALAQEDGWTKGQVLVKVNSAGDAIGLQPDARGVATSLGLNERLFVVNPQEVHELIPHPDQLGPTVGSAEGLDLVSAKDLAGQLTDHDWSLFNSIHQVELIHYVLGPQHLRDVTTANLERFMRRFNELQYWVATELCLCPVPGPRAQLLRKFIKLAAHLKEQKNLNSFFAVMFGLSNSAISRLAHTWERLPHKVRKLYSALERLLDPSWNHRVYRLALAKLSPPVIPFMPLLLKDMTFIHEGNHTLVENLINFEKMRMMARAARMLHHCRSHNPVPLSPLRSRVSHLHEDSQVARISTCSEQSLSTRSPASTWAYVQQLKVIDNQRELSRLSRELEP

Activity change, negative = inhibition, inactive:
COc1ccc(-c2nc3cnc(Oc4ccccc4)nc3n(CCC#N)c2=O)cc1 -8.74%
CN(C)Cc1ccccc1-c1nc(N(C)C)c2ccccc2n1 12.8%
CN=c1nc(-c2ccccc2)n(-c2ccccc2)s1 2.72% [at 75.8 µM]
CCCC[C@@]1(C2CCCC2)Cc2cc(OCC(=O)O)c(Cl)c(Cl)c2C1=O -11.5% [at 75.8 µM]
Nc1ccc(S(=O)(=O)NC(=O)c2ccccc2)cc1
COc1cc2c(cc1OC)C1CC(=O)C(CC(C)C)CN1CC2 (stereo not drawn) 4.04% [at 75.8 µM]
O=C(c1cc(C(F)(F)F)cc(C(F)(F)F)c1)N1CCC2(CC1)CN(Cc1ccncc1)C2 -5.2%
C[N+](C)(C)CCOP(=O)(O)OP(=O)([O-])OC[C@H]1O[C@@H](n2ccc(N)nc2=O)[C@H](O)[C@@H]1O
C=C(CC)C(=O)c1ccc(OCC(=O)O)c(Cl)c1Cl
Cc1cnc(SCC2CCCO2)nc1C1CCCN(Cc2cc3c(cc2Cl)OCO3)C1 (stereo not drawn) 8.22%
OCCCNCc1cc2cc3c(cc2nc1N1CCN(c2cccc(Cl)c2)CC1)OCO3 -14.4%
OC[C@H]1O[C@@H](O[C@@H]2[C@@H](CO)O[C@](O)(CO)[C@H]2O)[C@H](O)[C@@H](O)[C@H]1O
CCCCCCOC(=O)C1(O)CC2OC1(C)n1c3ccccc3c3c4c(c5c6ccccc6n2c5c31)C(=O)NC4 (stereo not drawn) -12.7% [at 15.3 µM]
Cn1cccc1C(=O)N1CCC[C@@]2(CCN(C(=O)Nc3cccc(F)c3)C2)C1 16%
N#Cc1ccc(CN2CC3(CCN(C(=O)c4ccco4)CC3)C2)cc1 4.53%
COc1cccc(Nc2ncc3nc(-c4cccs4)c(=O)n(Cc4cccs4)c3n2)c1 36.1%
CCCCCCCCCCCCCCCC(=O)O[C@H](CC(=O)O)C[N+](C)(C)C 0.0674%
CCCOC(C(=O)OC1CCN(C)CC1)(c1ccccc1)c1ccccc1 14.4%
CC1(C)CC[C@]2(C(=O)O)CC[C@@]3(C)C(=CCC4[C@@]5(C)CCC(O)C(C)(C)C5CC[C@@]43C)C2C1 (stereo partly drawn) 5.16%
COc1cccc(Cn2c(=O)c(-c3ccc(Cl)cc3)nc3cnc(N4CCN(C)CC4)nc32)c1 26.2%
CCCCCC1C(=O)CCC1CC(=O)OC (stereo not drawn) 9.9%
CS(=O)(=O)Nc1cccc(-c2nc(NCCN3CCOCC3)c3ccccc3n2)c1 9.51%
CS(=O)(=O)c1ccc([C@@H](O)[C@@H](CF)NC(=O)C(Cl)Cl)cc1 14.1% [at 75.8 µM]
CCN(CC)CCCC(C)Nc1ccnc2cc(Cl)ccc12 (stereo not drawn)
CCCN1CCC(=O)N(CCN=[N+]=[N-])CC1 1%
CCc1nc2cc(C(=O)N(C)C3CCOC3)cc(NC(=O)c3ccccc3OC)c2n1C (stereo not drawn) 2.07%
O=C(c1cc(C(F)(F)F)cc(C(F)(F)F)c1)N1CCC2(CCN(Cc3ccncc3)CC2)CC1 15.9%
COc1c2c(cc3c1C(CC(=O)c1c(O)c(OC)c4occc4c1OC)[N+](C)(C)CC3)OCO2 (stereo not drawn) 17.6%
Cc1ccc2cc(CN(C(=O)c3ccc4c(c3)OCO4)C3CC3)c(N(C)C)nc2c1 20.3%
N#CC[C@H](Cc1ccccc1)N1CCN(CCc2ccccc2)CCC1=O 13.5%
O=C1CC(c2ccccc2)Oc2ccccc21 (stereo not drawn) -2.08%
FCOC(C(F)(F)F)C(F)(F)F 12%
C[C@@H]1NS(=O)(=O)[C@H]2C[C@@H]3C=C[C@]2(O3)[C@H]1OC(=O)Nc1ccc(C(F)(F)F)cc1[N+](=O)[O-] -18.1%
Cc1cccc(C)c1NC(=O)c1ccccc1C(=O)O 13.3%
CCNC(=O)[C@H]1O[C@@H](n2cnc3c(N)nc(NCCc4ccc(CCC(=O)O)cc4)nc32)[C@H](O)[C@@H]1O 14.4% [at 75.8 µM]
c1ccc2c(Nc3ccncc3)nc(-c3ccoc3)nc2c1 3.21%
CNCCNS(=O)(=O)c1cccc2cnccc12
O=C(O)Cn1c(C(=O)Nc2nc(-c3ccccc3Cl)cs2)cc2ccccc21 -11.7%
CC1CC[C@@]23CCC4(C)[C@@]5(C)CCC6C(C)(C)C(=O)CC[C@@]6(C)C5C=C[C@@]4(OC2=O)C3C1C (stereo partly drawn) 13.2%
COc1cc(-c2c(OC)cccc2OC)cc2c1OCCN(Cc1cn[nH]c1-c1ccc(Cl)cc1)C2 -6.31%
NNC(=O)CP(=O)(c1ccccc1)c1ccccc1 11.6%
C[C@](N)(Cc1ccc(O)cc1)C(=O)O
COc1cc2c(cc1OC)[C@@H]1CC(=O)[C@@H](CC(C)C)CN1CC2 9.84%
Cc1ccccc1-c1cc(-n2ccnc2)ncn1 16.8%
COc1ccc(NC(=O)N2CCC3(CC2)CCN(C(=O)c2csnn2)CC3)cc1 10.3%
CS(=O)(=O)N1CCC2(CCCN(c3ncccn3)C2)CC1 18.6%
N#CCCn1c(=O)c(CCc2ccccc2)nc2cnc(Nc3ccccc3)nc21 3.88%
O=c1c(-c2cccs2)nc2cnc(Oc3cccc(Cl)c3)nc2n1C1CC1 12.4%
O=Cc1cc2c3c(c1)CCCN3CCC2 -25.4%
Cc1nc2cnc(N3CCN(C)CC3)nc2n(-c2ccccc2)c1=O 7.27%
Cc1c(Br)cnc2ccccc12 19.6%
CS(=O)(=O)N1CCC2(CC1)CN(c1cccc(-c3ccccc3)c1)C2 -8.93%
O=C(c1ccco1)N1CCC[C@@]2(CCN(c3ccncc3)C2)C1 13.7%
COCCn1c(=O)cnc2cnc(N3CCOCC3)nc21 -7.33%
CC[C@H](C)[C@H](NC(=O)OCC1c2ccccc2-c2ccccc21)C(=O)O 6.64%
CCN(CC)CCNC(=O)c1ccc(NS(C)(=O)=O)cc1 10.1% [at 75.8 µM]
O=C(c1ccncc1)N1CCC[C@@]2(CCN(Cc3ccncc3)C2)C1 32.6%
O=c1c(-c2cc(F)cc(F)c2)nc2cnc(N3CCNCC3)nc2n1C1CC1 -2.04%
Nc1nc(N)c(N)c(=O)[nH]1 13.3%
c1cncc(-c2nccc(NCc3cccs3)n2)c1 4.55%
CC(C)CN1CC[C@@]2(CCCN(C(=O)c3cc(C(F)(F)F)cc(C(F)(F)F)c3)C2)C1 -14.1%
CCOC(=O)OC(C)OC(=O)C1N2C(=O)C(NC(=O)C(N)c3ccccc3)C2SC1(C)C (stereo not drawn) -6.65%
COc1cc(OC)c2cc(-c3ccncc3)cnc2c1 13%
O=C(COc1ccc(Cl)cc1)OCCNC12CC3CC(CC(C3)C1)C2 3.76%
O=C(c1ccncc1)N1CCC2(CC1)CN(Cc1cc(C(F)(F)F)cc(C(F)(F)F)c1)C2 4.3%
NC(=O)N[C@@H](CCC(=O)O)C(=O)O 5%
O=C[C@H](O)[C@@H](O)[C@H](O[C@H]1O[C@H](CO)[C@@H](O[C@H]2O[C@H](CO)[C@@H](O)[C@H](O)[C@H]2O)[C@H](O)[C@H]1O)[C@H](O)CO 23%
COCCCC/C(=N\OCCN)c1ccc(C(F)(F)F)cc1 8.5% [at 75.8 µM]
CN(C)c1ncnc2ccc(-c3ccoc3)cc12 6.97%
COC(=O)N1CCC2(CCCN(c3ccc(-c4ccccc4)cc3)C2)CC1 27.7%
C[C@]12CCC(=O)C=C1CC[C@@H]1[C@@H]2C(=O)C[C@@]2(C)[C@H]1CC[C@]2(O)C(=O)CO
CCCc1nc(C(C)(C)O)c(C(=O)OCc2oc(=O)oc2C)n1Cc1ccc(-c2ccccc2-c2nn[nH]n2)cc1 20.8%
Cn1cccc1C(=O)N1CCC[C@@]2(CCN(c3ccccn3)C2)C1 15.7%
CC/C=C\C/C=C\C/C=C\C/C=C\C/C=C\CCCC(=O)O 26.8%
CSc1nc(C(=O)N2CCOc3ccc(CN4CCN(Cc5ccccn5)CC4)cc3C2)cs1 20.8%
Cn1cccc1C(=O)N1CCC[C@@]2(CCN(Cc3ccccc3)C2)C1 13.3%
O=C(O)CNC(=O)CNC(=O)CNC(=O)CSC(=O)c1ccccc1 10.1%
CC1(C)S[C@@H]2[C@H](N=CN3CCCCCC3)C(=O)N2[C@H]1C(=O)O 23.4%
COc1ccc(C(=O)N2CCC3(CCN(C(=O)Nc4cccc(C#N)c4)CC3)CC2)cc1 11.3%
Nc1ccc(C(=O)O)c(O)c1 (tested in a mixture with another compound) 16%
COCCn1c(=O)c(-c2cc(F)cc(F)c2)nc2cnc(OCc3ccccc3)nc21 -5.07%
Cc1ncc2c(c1CNS(=O)(=O)N(C)C)CCN(C(=O)c1ccc(-c3ccc(F)cc3)cc1)C2 7.52%
O=S1(=O)CCO[C@H]2Cc3ccccc3[C@H]2N1Cc1ccc(Cl)cc1 2.12%
Cc1ncoc1C(=O)N1CCOc2ccc(CN3CCN(c4ccccn4)CC3)cc2C1 8.39%
O=S(=O)(c1ccccc1)N1CCC[C@@]2(CCN(c3ccccc3)C2)C1 13.4%
CC#CCOC(=O)c1c(C)nc2sc3c(c2c1N)CC[C@@H](O)C3 -4.85%
COc1cccc(Cn2cc(-c3cccc(C(F)(F)F)c3)nn2)c1 -16.7%
CC1(C)C(OC(=O)CCC(=O)O)CC[C@]2(C)C1CC[C@@]1(C)C2C(=O)C=C2[C@@H]3C[C@@](C)(C(=O)O)CC[C@]3(C)CCC21C (stereo partly drawn) 20.1%
CC(=O)[C@]1(O)Cc2c(O)c3c(c(O)c2[C@@H](O[C@H]2C[C@H](N)[C@H](O)[C@H](C)O2)C1)C(=O)c1c(O)cccc1C3=O
N[C@H](CC(=O)O)C(=O)O
Cc1ccc(SCCN2CCC(O)CCC2=O)cc1 (stereo not drawn) 0.106%
CCOC(=O)N1CCC(=C2c3ccc(Cl)cc3CCc3cccnc32)CC1
Oc1cc(-c2nc3ccccc3s2)cc2c1OCCN(Cc1cccn1-c1ccc(Cl)cn1)C2 4.69%
COc1cc2c(cc1OC)C1C(=O)c3c(O)cc4c(c3OC1CO2)C=CC(C)(C)O4 (stereo not drawn) -19%
COc1ccccc1C(=O)N[C@@H]1c2ccccc2C2(CCN(Cc3nccs3)CC2)[C@H]1OC 13%
COc1cc(O)c2c(=O)cc(-c3ccc(OC)c(-c4c(O)cc(O)c5c(=O)cc(-c6ccc(O)cc6)oc45)c3)oc2c1 0.856%
O=C(NOCC1CC1)c1ccc(F)c(F)c1Nc1ccc(I)cc1Cl 22.6%
COc1ccc(-c2nc3cnc(N4CCN(C)CC4)nc3n(C3CC3)c2=O)cc1 9.03%
